Results taken from PubChem BioAssay AID1508642 (National Center for Advancing Translational Sciences (NCATS), 2021).
Screen size: about 43,000 compounds; about 200 (0.47%) were called active. The shares of active, inactive and inconclusive entries below differ from those in the screen. Calls follow the shape of the dose curve; as a rule, active = well fitted cell-killing curve with a large enough effect; inconclusive = small, poorly fitted or top-dose-only effect, or effect the other way; inactive = flat fitted curve, though single readings scatter. Where the call is inconclusive, the potency comes from a doubtful curve fit.

Test: Cell viability qHTS assay in S16 Pmp22-F2sN cells; also: nearly all actives have a fitted effect of over 65% in size
Conditions: S16 Pmp22-F2sN Schwann cells (luciferase reporters placed in the Pmp22 gene) viability, CellTiter-Glo, 24 h; activity change, negative = cytotoxicity: at 57.5 µM (top of the series)
Source text: Assay Provider: Jim Inglese Ph.D. National Center for Advancing Translational Science, National Institutes of Health, Rockville, MD CMT is a heterogeneous group of neurological disorders that affect approximately 1 in 2,500 people. In particular, the most common form of CMT, CMT1A is genetically linked to the duplication of the PMP22 gene which leads to Schwann cell overexpression, thus manifesting itself as a typical case of dose-sensitive diseases. To identify small molecule compounds that can mediate the expression of PMP22 we developed a phenotypic assay screening strategy by utilizing genome editing techniques to construct Schwann cell lines containing novel reporter technology to monitor the transcriptional or translational regulation of PMP22. For high sensitivity we use a bioluminescent reporter system embedded in the 3' UTR of the PMP22 gene (S16(c9) Pmp22-F2sN) to identify compounds that inhibit gene expression. […] We can further discriminate the effect of all transcriptionally active molecules on PMP22 translation or stability with an assay that incorporates a short NLuc peptide (HiBiT) at the C-terminus of expressed PMP22 (S16(f8) PMP22-HiBiT) allowing alpha complementation and luminescence detection of membrane-associated PMP22 protein. These assays were screened against the NCATS Sytravon Library Collection. Miniaturization of these assays to 1536-well plate format for quantitative high throughput screening (qHTS) yielded rich data sets immediately from the qHTS assay (S16(c9) Pmp22-F2sN), when compared with data from a cell viability assay (Cell TiterGlo) to identify compounds that decreased the output signals through cellular toxicity to streamline the selection process of actives for subsequent characterization using the HiBiT assay (S16(f8) PMP22-HiBiT).
Cell viability assay in S16 Pmp22-F2sN cells PROTOCOL TABLE (format as described by Inglese J, Shamu CE and Guy RK. 2007) SEQUENCE No. (e.g., 1, 2, 3, etc.); […] (e.g., Cells, Incubation, Reagent, etc.); VALUE and DESCRIPTION. 1. Cells. Add 500-1,000 cells in 4 uL in growth media (DMEM High Glucose, No Phenol Red media + 10% heat-inactivated FBS + 1% Pen/Strep supplemented media) per well into Greiner 1536-well white/solid bottom high base, TC-treated plates. 2. Compounds. Library compounds and controls added at 23nL per well, transferred by Pin Tool. 3. Incubation. Incubate plates at 37C, 5% CO2, 95% RH for 24 h. 4. Reagent. Add 3uL CellTiter-Glo per well of Greiner 1536-well plates. 5. Incubation. Incubate plates at room temperature for 15 min., protect from light. 6. Detector. FLuc luminescence measured using CCD-based camera (Viewlux). NOTES (numbers refer to Sequence numbers above; values are from representative experiments) 6. Luminescence Read: Clear filter; Exposure = 1 sec, Gain = High, Speed = Slow, Binning = 2X REFERENCES: 1. Inglese J, Shamu CE and Guy RK, Reporting data from high throughput screening of small molecule libraries, Nature Chemical Biology, 2007, 3(8): 438-441. doi.org/10.1038/nchembio0807-438 2. Yasgar A, Shinn P, Jadhav A, Auld DS, Michael S, Zheng W, Austin CP, Inglese J and Simeonov A, Compound Management for Quantitative High-Throughput Screening. J. Assoc. Lab. Auto., 2008, 13: 79-89. doi: 10.1016/j.jala.2007.12.004
% is scaled to controls: 0 for no effect and ±100 for the full control effect; potency is read from the fitted curve at half-maximal effect; tags tell the direction and shape of the fitted curve.

Structure (SMILES)	Potency	activity change, negative = cytotoxicity
CCOc1ccccc1NC(=O)Nc1cc(C(=O)NCc2ccc(C)cc2)ccc1N1CCCC1	inconclusive: 35.5 µM [cytotoxic, partial curve, poor fit]	
COc1ccc(-c2cn3c(n2)sc2cc(C(=O)NCCCN4CCCCC4)ccc23)cc1	inconclusive: 31.6 µM [cytotoxic, single point]	
COc1ccc(NC(=O)CN2C(=O)CCc3cc(S(=O)(=O)N4CCOCC4)ccc32)c(OC)c1	inconclusive: 7.94 µM [cytotoxic, partial curve, poor fit]	
COc1ccc(N2CCN(C(=O)c3ccc4c(=O)n(CCc5ccc(OC)c(OC)c5)c(=O)[nH]c4c3)CC2)cc1	inconclusive: 7.94 µM [cytotoxic, partial curve]	
CCc1ccc(CNC(=O)CSc2cc(=O)n(CC)c3ccccc23)cc1	inconclusive: 31.6 µM [cytotoxic, single point]	
O=C(CN(c1cc(C(F)(F)F)ccc1Cl)S(=O)(=O)c1ccccc1)NCCc1ccccc1		inactive: 9.26%
CCOc1ccc(CCNC(=O)c2ccc3c(c2)N(Cc2ccccc2)C(=O)c2ccccc2S3=O)cc1OCC (stereo not given)	inconclusive: 0.631 µM [rising, full curve, poor fit]	
O=C(Oc1ccccc1Cl)c1cc(-c2ccc3c(c2)OCCO3)on1		inactive: -2.91%
CCN1CCN(c2cc(C)c3cc(NC(=O)c4cccc(Cl)c4)ccc3n2)CC1	inconclusive: 39.8 µM [cytotoxic, single point]	
CCCC(=O)C1=C(c2ccc(C)cc2)N(C(=O)CCC)n2cnnc2S1	inconclusive: 28.2 µM [cytotoxic, partial curve, poor fit]	
Cc1n[nH]c(C)c1CCc1nc2c3ccccc3nc(SCC(=O)Nc3ccc(F)cc3)n2n1	inconclusive: 31.6 µM [cytotoxic, single point]	
Cc1oc(-c2ccc(C(=O)Nc3cccc(C(F)(F)F)c3)cc2)nc1CSc1ccccc1	inconclusive: 39.8 µM [cytotoxic, single point]	
CCCCCn1c(CCCNC(=O)c2cccc(C)c2)nc2ccccc21	inconclusive: 39.8 µM [cytotoxic, single point]	
COc1ccccc1C(=O)OCc1cc(=O)n2nc(C3CCCCC3)sc2n1	inconclusive: 39.8 µM [rising, single point]	
Cc1ccc(Cl)cc1N1CCN(CCCNc2ncnc3onc(-c4ccc(Cl)cc4)c23)CC1		inactive: 4.21%
COc1ccc(Nc2sc(C(=O)c3ccccc3)c(N)c2C(=O)Nc2cc(C)ccc2C)c(OC)c1	inconclusive: 25.1 µM [cytotoxic, single point]	
Cc1ccc(NC(=O)c2cc(S(=O)(=O)NCCC3=CCCCC3)ccc2F)cc1C	inconclusive: 35.5 µM [cytotoxic, single point]	
Cc1ccc(S(=O)(=O)c2nnn3c2nc(N2CCC(C)CC2)c2cc(Cl)ccc23)cc1C	inconclusive: 31.6 µM [cytotoxic, single point]	
CCN1C(=O)c2ccccc2S(=O)c2ccc(C(=O)N3CCN(c4ccccc4)CC3)cc21 (stereo not given)	inconclusive: 35.5 µM [rising, single point]	
COc1cccc(CNC(=O)CCCN2C(=O)CSc3c2c(C)nn3-c2ccccc2)c1OC	inconclusive: 14.1 µM [cytotoxic, partial curve, poor fit]	

Structure (SMILES)	Potency	activity change, negative = cytotoxicity
Cc1nn2c(=O)cc(COC(=O)c3ccc(NC(=O)COc4ccc(Cl)cc4)cc3)nc2s1	inconclusive: 0.398 µM [cytotoxic, full curve, poor fit]	
CCOc1ccc(CCNc2ncnc3onc(-c4ccc(Cl)cc4)c23)cc1		inactive: -24%
CC1CCN(S(=O)(=O)c2ccc3nc(NCc4ccc(F)cc4)ccc3c2)CC1	inconclusive: 39.8 µM [cytotoxic, single point]	
Cc1ccc(S(=O)(=O)c2nnn(CC(=O)Nc3ccccc3C)c2N)cc1		inactive: -7.89%
CCOC(=O)c1c(NC(=O)c2ccc(S(=O)(=O)N(CC(C)C)CC(C)C)cc2)sc2c1CCN(CC)C2	inconclusive: 35.5 µM [cytotoxic, single point]	
COc1ccc(CN(C(=O)c2cc(=O)c3ccccc3o2)C2CCS(=O)(=O)C2)cc1OC (stereo not given)	inconclusive: 39.8 µM [rising, single point]	
Cc1ccc2c(c1)c(=O)c1ccccc1n2CCCC(=O)Nc1ccc(Cl)c(Cl)c1	inconclusive: 8.91 µM [cytotoxic, partial curve, poor fit]	
Cc1cccc(C)c1NC(=O)C(=O)NCC(c1cccnc1)N1CCc2ccccc21 (stereo not given)	inconclusive: 25.1 µM [cytotoxic, single point]	
O=C(CSc1nc2c([nH]c3ccccc32)c(=O)n1-c1ccc(Cl)cc1)NC1CCCCC1	inconclusive: 39.8 µM [cytotoxic, single point]	
CCCCNC(=O)Nc1ccc2c(c1)N(C)C(=O)c1ccccc1S2	inconclusive: 39.8 µM [cytotoxic, single point]	
Cc1cc(Nc2cccc(Br)c2)n2c(nc3ccccc32)c1C#N	inconclusive: 0.1 µM [cytotoxic, full curve, poor fit]	
CCOc1cc(C(Nc2cc(C)ccn2)c2ccc3cccnc3c2O)ccc1OC (stereo not given)	inconclusive: 35.5 µM [cytotoxic, partial curve, poor fit]	
O=C(COCc1cc(-c2cccs2)on1)Nc1cc(Cl)ccc1O		inactive: -15.5%
O=c1oc2ccccc2n1CCCOc1ccccc1Cl		inactive: 11.8%
COc1cccc(N2CCN(C(=O)CCS(=O)(=O)c3ccc4c(c3)CC(=O)N4C)CC2)c1	inconclusive: 0.794 µM [cytotoxic, full curve, poor fit]	
CS(=O)(=O)N1CCc2cc(C(=O)Nc3ccc(Cl)c(C(F)(F)F)c3)ccc21	inconclusive: 39.8 µM [cytotoxic, single point]	
COc1ccccc1C(=O)NCCSc1c(C)[nH]c2ccccc12	inconclusive: 39.8 µM [cytotoxic, single point]	
COc1ccc(-c2nc3ccccc3o2)cc1NC(=O)C(C)(C)Oc1ccc(Br)cc1	inconclusive: 2.82 µM [rising, full curve, poor fit]	
CCOc1ccc(-c2nnc(SCC(=O)NCc3ccc(C)cc3)nc2-c2ccc(OCC)c(OC)c2)cc1OC		inactive: -21.5%
CCc1nn2c(=O)cc(COC(=O)c3ccccc3NC(=O)COc3ccc(F)cc3)nc2s1		inactive: -15.6%

Structure (SMILES)	Potency	activity change, negative = cytotoxicity
COc1cccc(NC(=O)CCCn2c(=O)c3cccn3c3cccnc32)c1		inactive: 0.174%
Cn1nnnc1SCCCNCc1cc(Br)ccc1OCc1ccccc1F	inconclusive: 25.1 µM [cytotoxic, single point]	
O=C(Nc1sc2c(c1C(=O)NCC1CCCO1)CCC2)c1cc(=O)c2cc(Cl)ccc2o1 (stereo not given)		inactive: 8.15%
O=C1C(=O)N(C2CCNCC2)CCN1Cc1ccccc1	inconclusive: 2.51 µM [cytotoxic, partial curve, poor fit]	
Fc1ccc(-c2cc(-c3ccccc3)c3c(n2)-c2ccccc2OC3)cc1	inconclusive: 35.5 µM [rising, partial curve, poor fit]	
CCc1ccc(NC(=O)c2ccc(Cn3nc(N4CCN(c5ccccc5)CC4)ccc3=O)o2)cc1	inconclusive: 39.8 µM [cytotoxic, partial curve, poor fit]	
Cc1ccc(N(CC(=O)NCCSc2ccccc2)S(=O)(=O)c2ccc(F)cc2)cc1	inconclusive: 39.8 µM [rising, single point]	
COc1ccc(Cl)cc1NC(=O)Cn1nc(C(F)(F)F)c2c1CCCC2	inconclusive: 0.316 µM [rising, full curve, poor fit]	
Cc1cc(C)c(NC(=O)CSC2=Nc3ccccc3C3=NC(CC(=O)NCc4cccs4)C(=O)N23)c(C)c1 (stereo not given)	inconclusive: 22.4 µM [cytotoxic, partial curve, poor fit]	
Cc1ccc(NC(=O)N2CCN(Cc3nc4ccc(C)cc4o3)CC2)cc1	inconclusive: 39.8 µM [cytotoxic, single point]	
CCOc1ccc(CNC(=O)c2cc3cc(S(=O)(=O)N4CCCCC4)ccc3n2C)cc1	inconclusive: 22.4 µM [cytotoxic, single point]	
Oc1ccc(NCc2ccccc2OCc2ccccc2)cc1	active: 20 µM	
CCOC(=O)c1c(C)[nH]c(C)c1S(=O)(=O)N1CCCC(C(=O)N2CCN(c3cccc(Cl)c3)CC2)C1 (stereo not given)	inconclusive: 28.2 µM [cytotoxic, single point]	
Cc1ccc2[nH]cc(C(c3ccccc3)c3ccc(Cl)s3)c2c1 (stereo not given)	inconclusive: 39.8 µM [cytotoxic, single point]	
CCN(CC)CCNC(=O)c1cc2c(-c3cccc(OC)c3)nn(C)c2s1	inconclusive: 14.1 µM [cytotoxic, partial curve, poor fit]	
Cc1ccc(NC(=O)Cn2c(=O)n(CCC(C)C)c(=O)c3cccnc32)cc1C	inconclusive: 39.8 µM [rising, single point]	
CC1CN(C(=O)N2CCC(C(=O)NCc3ccccc3F)CC2)c2cc(Cl)ccc2O1 (stereo not given)	inconclusive: 31.6 µM [cytotoxic, partial curve, poor fit]	
CCOc1ccc(CNC(=O)c2cccc(Nc3nc4ccccc4n4nnnc34)c2)cc1OC	inconclusive: 8.91 µM [cytotoxic, partial curve]	
Cc1ccc(CNc2c(C)c(C)nc3nncn23)cc1	inconclusive: 10 µM [cytotoxic, partial curve]	
COc1cccc(NS(=O)(=O)c2cc(-c3cnc(C4CC4)o3)ccc2C)c1	inconclusive: 22.4 µM [rising, partial curve, poor fit]	
